From the antibiotic and cytotoxicity screens of Wong et al. (2023)
This is one part of the list.

The molecules below were run on S. aureus RN4220 (assay: growth inhibition call (relative growth <= 0.2)). Conditions: 50 µM.

Growth inhibition call, inactive:
COc1ccc2c3c([nH]c2c1)[C@H](CO)N(C[C@]13CCN(CC1)S(=O)(=O)c1cn(cn1)C)C(=O)Nc1ccc(cc1)F, C[C@H]1CN([C@@H](C)CO)C(=O)c2cccc(NC(=O)c3nc4ccccc4s3)c2O[C@@H]1CN(C)Cc1ccc(C(F)(F)F)cc1, Cc1noc(C)c1NC(=O)Nc1ccc2c(c1)C(=O)N([C@@H](C)CO)C[C@@H](C)[C@@H](CN(C)S(=O)(=O)c1ccc(Cl)cc1)OCCCC[C@@H](C)O2, C[C@H]1CN([C@@H](C)CO)C(=O)Cc2cc(NC(=O)c3ccncc3)ccc2O[C@H]1CN(C)S(=O)(=O)c1ccc(Cl)cc1, C[C@@H]1CN([C@H](C)CO)C(=O)c2cc(NC(=O)Nc3ccc(F)cc3)ccc2O[C@H]1CN(C)Cc1ccc(Cl)c(Cl)c1, C[C@@H]1CN([C@@H](C)CO)C(=O)c2cc(NC(=O)Cc3cn(C)c4ccccc34)ccc2O[C@H]1CN(C)S(C)(=O)=O, CC(C)CC#Cc1ccc2c(c1)O[C@@H](CN(C)CC1CCOCC1)[C@H](C)CN([C@@H](C)CO)S2(=O)=O, C[C@@H]1CCCCO[C@@H](CN(C)C(=O)NC2CCCCC2)[C@@H](C)CN([C@H](C)CO)C(=O)c2cc(NC(=O)Nc3ccc(C(F)(F)F)cc3)ccc2O1, O=C(C[C@@H]1CC[C@@H]2[C@H](COC[C@@H](O)CN2S(=O)(=O)c2ccccc2F)O1)N1CCC(Cc2ccccc2)CC1, Cc1ccc(S(=O)(=O)Nc2ccc3c(c2)C(=O)N([C@@H](C)CO)C[C@@H](C)[C@@H](CN(C)Cc2ccncc2)OCCCC[C@@H](C)O3)cc1, O=C(O)/C=C/C(=O)O
